The results in this text go back to PubChem BioAssay AID1508623 (National Center for Advancing Translational Sciences (NCATS), 2021).

Structures are written as SMILES. About 450 (0.94%) of roughly 48,000 compounds were called active. About 19% were inconclusive and are not listed. Calls come from the whole dose curve; as a rule, active = well fitted inhibition curve with a large enough effect; inconclusive = small, poorly fitted or top-dose-only effect; inactive = no such curve, though single readings can be large or run the other way. The list shows a part of the results.

The test in a line: Primary qHTS for Identification of Small Molecule Inhibitors of Huntingtin Promoter Activity. Note: nearly all actives have a fitted effect of over 50% in size. The note with it: HEK293 HTT promoter firefly luciferase reporter (activity 0% = vehicle and -100% = no light), 24 h; series mostly up to 57.5 µM; activity change, negative = inhibition: at the top concentration. The procedure, abridged: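 HEK293 Fluc reporter, 2,500 cells/well, 24 h pre-culture; cpds up to 57.5 uM final, 24 h 37 degrees C; Dual-Glo, 10 min RT; normalized vehicle = 0%, zero RLU = -100%.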
`COc1ccc(Cl)cc1NC(=O)N1CCN(S(=O)(=O)c2ccc3c(ccn3C)c2)CC1`: the “activity change, negative = inhibition” value was inactive: -26.6%.
Next, `Cc1ccc(OCCSc2nc(-c3ccccc3C)nc3cc(=O)[nH]n23)cc1Cl`: inactive: -4.46%.
Consider `COc1ccccc1N1CCN(c2ncnc3c2c(-c2ccccc2)cn3-c2cccc(Cl)c2)CC1`, for which the “activity change, negative = inhibition” value was inactive: -26.1%.
On to `Cc1nn(-c2nc(-c3ccccc3)cc(C(F)(F)F)n2)c(C)c1Cl`, for which the “activity change, negative = inhibition” value is inactive: -20.4%.
On to `COc1ccc(S(=O)(=O)N2CCC(Oc3ccc(-n4cnnn4)cc3)CC2)cc1`, for which the “activity change, negative = inhibition” value was inactive: -31.2%.
Consider `COc1cccc(OC)c1C(=O)NCCc1sc(-c2cccc(F)c2)nc1C`, for which the “activity change, negative = inhibition” value is inactive: -28.4%.
`CCCCNC(=O)c1cccc(NC(=O)c2nsc3ccccc23)c1`: the “activity change, negative = inhibition” value was inactive: 22.4%.
On to `CC(N)CCCC(C)(C)O` (stereo not drawn), for which the “activity change, negative = inhibition” value was inactive: 1.48%.
With `CCOc1ccc2c(c1)c(=O)c(C(=O)c1ccc3c(c1)OCO3)cn2Cc1ccc(F)cc1`, the “activity change, negative = inhibition” value was inactive: -12.7%.
Regarding `COc1cccc(CNC(=O)c2cnc3c(-c4ccc(F)cc4)c(C)nn3c2C)c1`, the “activity change, negative = inhibition” value was inactive: -5.56%.
Next, `CCc1ccc(C2C(C(=O)Nc3ccccc3OC)=C(C)Nc3c(C(=O)Nc4ccc(C)cc4)cnn32)cc1` (stereo not drawn): inactive: -11.9%; `CCN(C(=O)c1cn(-c2cccc(OC)c2)c(=O)c2ccccc12)c1ccccc1C`: inactive: -13.8%.
Consider `Cc1ccc(C)c(NC(=O)CSc2nccn2-c2cccc(C)c2C)c1`, for which the “activity change, negative = inhibition” value is inactive: -25.9%.
Take `COc1ccc(C(=O)Nc2ccccc2-c2nc3ccccc3s2)cc1OC`: the “activity change, negative = inhibition” value was inactive: -15.7%.
Turning to `COc1ccc(CCCc2nnc(SCC(=O)Nc3cccc(F)c3C)o2)cc1`, the “activity change, negative = inhibition” value is inactive: -15.9%.
Consider `CCOCCc1nn2c(=O)cc(COC(=O)c3ccccc3OC)nc2s1`, for which the “activity change, negative = inhibition” value was inactive: -1.9%.
As for `COCCCn1c(SCc2cccc(Cl)c2)nc2c(sc3ccccc32)c1=O`, the figure is inactive: -6.57%; as for `Cc1cc(=O)n2nc(N(C)CC(=O)NCc3ccccc3C)sc2n1`, inactive: -11.4%; as for `CCCC(=O)Nc1cccc(OCc2cc(=O)n3cccc(C)c3n2)c1`, inactive: 8.32%.
Regarding `CCc1ccccc1Nc1nn2c(=O)c3ccc(C(=O)NCCC4=CCCCC4)cc3nc2s1`, the “activity change, negative = inhibition” value was inactive: -18.1%.
On to `O=C(NCCc1ccccc1)c1cc(Nc2ccccc2)nc2ccccc12`, for which the “activity change, negative = inhibition” value is inactive: -14.3%.
For `CCOCCc1nnc(NC(=O)C(=O)c2cc(C)n(-c3ccc(C)cc3C)c2C)s1`, the “activity change, negative = inhibition” value is inactive: -33.3%.
As to `COc1ccc2c(c1)c1c(c(=O)n(Cc3ccccc3)c(=O)n1CC(=O)Nc1ccccc1OC)n2C`, the “activity change, negative = inhibition” value is inactive: -18.6%.
For `CCn1c(C)c(C)c2cc(C(=O)NCC(C)c3ccccc3)ccc21` (stereo not drawn), the “activity change, negative = inhibition” value was inactive: -3.03%.
Next, `COc1ccc(N(CC(=O)Nc2cccc(Cl)c2)S(=O)(=O)c2c(C)[nH]c(=O)[nH]c2=O)cc1`: inactive: -14.8%; `CCOc1ccc(Nc2nc(-c3cccc(Cl)c3)c3c(n2)-c2ccccc2OC3)cc1`: inactive: -9.39%.
As for `O=C(c1ccc2c(Cl)c3c(nc2c1)CCCC3)N1CCN(c2ccc(Cl)cc2)CC1`, the figure is inactive: -2.97%.
`CCOc1ccc(-n2c(=O)c3c4c(sc3n(CC(=O)NC(C)CC)c2=O)CCCCC4)cc1` (stereo not drawn): the “activity change, negative = inhibition” value was inactive: -2.84%.
As for `Cc1ccc(CNC(=O)CSc2nc3c(sc4ccccc43)c(=O)n2CCCC(=O)NCCO)cc1`, the “activity change, negative = inhibition” value is inactive: 10.4%.
For `O=C(Nc1ccc(F)cc1)Nc1csc2c1CCCC2`, the “activity change, negative = inhibition” value was inactive: -3.61%.
As for `C[C@@H](O[C@H]1OCCN(Cc2n[nH]c(=O)[nH]2)[C@H]1c1ccc(F)cc1)c1cc(C(F)(F)F)cc(C(F)(F)F)c1`, the figure is inactive: -26.5%; as for `Oc1cccc(O)c1`, inactive: 9.32%; as for `C[C@@H]1CCC[C@H](C)N1`, inactive: 0.52%.
In the case of `Cc1c(CCNC(=O)c2c(F)cccc2F)sc2nc(-c3ccc(F)cc3)nn12`, the “activity change, negative = inhibition” value was inactive: 23.9%.
In the case of `CCOc1ccc(CCn2c3c(c(=O)[nH]c2=O)C(NC(=O)c2cccc(F)c2)(C(F)(F)F)C(=O)N3)cc1OCC` (stereo not drawn), the “activity change, negative = inhibition” value was inactive: -8.34%.
Consider `O=C(Cc1ccc(-c2ccccc2)cc1)NCCS(=O)(=O)N1CCN(c2ccc(F)cc2)CC1`, for which the “activity change, negative = inhibition” value is inactive: -29.8%.
On to `Cc1cc(O)cc(C)c1Cl`, for which the “activity change, negative = inhibition” value was inactive: -2.58%.
Consider `CC(=O)N(c1onc(C)c1C)S(=O)(=O)c1ccc(N)cc1`, for which the “activity change, negative = inhibition” value is inactive: 2.36%.
Take `COc1cc(-c2nc3sccn3c2Nc2c(C)cccc2C)ccc1O`: the “activity change, negative = inhibition” value is inactive: -2.36%.
As for `O=C1Cc2cc(S(=O)(=O)N3CCN(c4cccc(Cl)c4)CC3)ccc2N1`, the “activity change, negative = inhibition” value was inactive: -6.79%.
With `CC(=O)N1CCCc2ccc(NS(=O)(=O)c3cccc(Cl)c3)cc21`, the “activity change, negative = inhibition” value is inactive: -10.7%.
As to `CC(=O)N1CCCC1c1nc2ccccc2n1Cc1ccccc1Cl` (stereo not drawn), the “activity change, negative = inhibition” value was inactive: -9.52%.
`Cc1cccc(OCc2nc(CC(=O)Nc3ccc(Cl)cc3)cs2)c1`: the “activity change, negative = inhibition” value is inactive: -21.8%.
As to `Cc1cc(Nc2ccc(Br)cc2)nc(C)n1`, the “activity change, negative = inhibition” value is inactive: 33.2%.
Next, `Cc1cccc(C)c1-n1ncc(C(=O)NCCCN2CCC(C)CC2)c1C1CCN(C(=O)OC(C)(C)C)CC1`: inactive: -18.9%; `CCOC(=O)c1cnc2c(ccc3ccccc32)c1Nc1ccc(C(C)=O)cc1`: inactive: -28.6%.
As for `COc1cccc(CSc2nc3ccncc3n2CC(=O)Nc2ccc(OC)c(OC)c2OC)c1`, the “activity change, negative = inhibition” value was inactive: -2.51%.
For the compound `CCCCN(CCCC)CC(O)c1cc(Cl)cc2c1-c1ccc(Cl)cc1/C2=C/c1ccc(Cl)cc1` (stereo not drawn), the “activity change, negative = inhibition” value is inactive: -6.25%.
`COc1ccccc1CNC(=O)Cc1csc2nc(-c3ccc(F)cc3)cn12`: the “activity change, negative = inhibition” value is inactive: -17.7%.
As for `CCc1cc2c(cc3c(=O)n(CC(=O)NC(C)c4ccccc4)ncn32)s1` (stereo not drawn), the “activity change, negative = inhibition” value is inactive: 10.2%.
In the case of `COc1cccc(NC(=O)CCN2C(=O)c3ccccc3Sc3ncccc32)c1`, the “activity change, negative = inhibition” value was inactive: -5.09%.
Consider `Cc1cc(C)nc(-n2nc(C)c3c2N(Cc2ccccc2F)C(=O)CC3c2ccc(Cl)cc2)n1` (stereo not drawn), for which the “activity change, negative = inhibition” value was inactive: -11.8%.
With `CCc1ccccc1NC(=O)C1CCN(S(=O)(=O)c2cn(C)cn2)CC1`, the “activity change, negative = inhibition” value is inactive: -12.4%.
With `CCOC(=O)c1sc2ccccc2c1S(=O)(=O)NCc1ccccc1OC`, the “activity change, negative = inhibition” value was inactive: 0%.
On to `Cc1cccc(C(=O)Nc2cc3c(cc2C)n(C)c(=O)n3C)c1`, for which the “activity change, negative = inhibition” value is inactive: 6.51%.
For the compound `CCC(=O)N1CCc2cc(Br)cc(S(=O)(=O)NCCc3cccc(C)c3)c21`, the “activity change, negative = inhibition” value was inactive: -23.3%.
In the case of `O=C(Nc1sc2c(c1C(=O)NCc1ccco1)CCCC2)c1cc(=O)c2cc(Cl)ccc2o1`, the “activity change, negative = inhibition” value is inactive: 2.95%.
With `Cc1nnc(N2CCN(C(=O)NCCC(C)C)CC2)c2nn(-c3ccc(Cl)cc3)c(C)c12`, the “activity change, negative = inhibition” value was inactive: -17.2%.
Turning to `Cc1cc(C)c2nc(C)cc(Nc3cccc(C(=O)O)c3)c2c1`, the activity change, negative = inhibition was inactive: -18.6% [at 11.5 µM].
Next, `CCOc1cc(C(=O)Nc2cc3c(cc2N2CCCC2)n(C)c(=O)c(=O)n3C)cc(OCC)c1OCC`: inactive: 2.74%.
Regarding `CC(=O)N1CCC(N(Cc2ccc(C)o2)C(=O)Nc2cccc(C(F)(F)F)c2)CC1`, the “activity change, negative = inhibition” value was inactive: -20.8%.
Consider `Cc1ccc2c(c1)-c1nc(-c3ccc4c(c3)NC(=O)CO4)cc(-c3ccccc3)c1CO2`, for which the “activity change, negative = inhibition” value was inactive: -6.97%.
As for `O=C(CCCCn1c(=O)c2ccccc2n(Cc2cccc(F)c2)c1=O)NCCc1ccccc1`, the figure is inactive: -14.6%.
